From publication PMC8739753 (ACS catalysis, 2021)

Tests used:
TamI WT and mutants = settings: range over TamI WT, L295V, and L101A_L295I
TamI H102V = TamI H102V (Streptomyces sp. 307-9, UniProt D3Y1J3, H102V); assay: biochemical
TamI L101A_L295I [1] = molecular target: T1, TamI L101A_L295I (Streptomyces sp. 307-9, UniProt D3Y1J3, L101A/L295I); assay: biochemical
P450 TamI L244A_L295V = P450 TamI L244A_L295V (Streptomyces sp. 307-9, UniProt D3Y1J3, L244A/L295V); assay: Michaelis–Menten kinetics, TamI L244A_L295V; type: biochemical; settings: TamI L244A_L295V vs TamI WT; compound as substrate
TamI L101A_L295I [2] = molecular target: T1, TamI L101A_L295I; settings: compound as substrate
TamI P450 L244A_L295V [3] = molecular target: T2, TamI P450 L244A_L295V (Streptomyces sp. 307-9, UniProt D3Y1J3, L244A/L295V); settings: compound as substrate
P450 TamI L101A_L295I = settings: TamI L101A_L295I vs TamI WT; step 4 on substrate
TamI P450 L244A_L295V [4] = molecular target: T2, TamI P450 L244A_L295V; assay: biochemical

Row | Structure (SMILES) | TTN (mol substrate consumed/mol P450) (TamI WT and mutants) | Kd (TamI H102V) [µM] | Kd (TamI L101A_L295I [1]) [µM] | increase in catalytic efficiency compared to the WT enzyme (P450 TamI L244A_L295V) [fold] | TTN (mol substrate consumed/mol P450) (TamI L101A_L295I [2]) | TTN (mol substrate consumed/mol P450) (TamI P450 L244A_L295V [3]) | increase in efficiency compared to TamI WT (P450 TamI L101A_L295I) | Kd (TamI P450 L244A_L295V [4]) [µM]
1 | CC1=CC[C@H]2O[C@]1(C)O[C@H]([C@H](C)/C=C(C)/C=C/C(O)=C1/C(=O)CNC1=O)[C@H]2C [compound 1, tirandamycin C] | 368–369 | 10.3 | 0.09 |  |  |  |  | 
2 | CC(C=CC(O)=C1C(=O)CNC1=O)=CC(C)C1OC2(C)OC(C(O)C=C2C)C1C (stereo not shown) [compound 2, tirandamycin E] |  |  | 4.75 | 36 | 324 |  |  | 
3 | CC(/C=C/C(O)=C1/C(=O)CNC1=O)=C\[C@@H](C)[C@H]1O[C@@]2(C)O[C@H](C(=O)[C@@H]3O[C@@]32C)[C@@H]1C [compound 4, Tirandamycin A] |  |  |  | 23 |  | 167 | eightfold | 7.09
